The full ranking holds about 110,000 compounds; the median of “z-score” is about -0.1, and the highest 2% start at about 2. This is one part of the list. The source made the active and inactive calls.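 Rule for the calls: active = z-score in the third read window above 3 or below -3; inactive = the rest.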

For this experiment, the target named is Metabotropic glutamate receptor 8 (Rattus norvegicus) (UniProt P70579). The experiment is described as follows: mGluR8 Gi/Go-coupled signaling modulation – cell-based, rat, thallium flux, HTS, primary screen (AID 488969). The conditions noted are these: HEK293 rat mGluR8, GIRK (G protein-gated inwardly rectifying potassium channel) thallium flux, FluoZin2; at 10 µM; stronger effect = higher value; submaximal glutamate (EC20) added with thallium.
UniProt P70579, sequence (P70579 whole entry, looked up): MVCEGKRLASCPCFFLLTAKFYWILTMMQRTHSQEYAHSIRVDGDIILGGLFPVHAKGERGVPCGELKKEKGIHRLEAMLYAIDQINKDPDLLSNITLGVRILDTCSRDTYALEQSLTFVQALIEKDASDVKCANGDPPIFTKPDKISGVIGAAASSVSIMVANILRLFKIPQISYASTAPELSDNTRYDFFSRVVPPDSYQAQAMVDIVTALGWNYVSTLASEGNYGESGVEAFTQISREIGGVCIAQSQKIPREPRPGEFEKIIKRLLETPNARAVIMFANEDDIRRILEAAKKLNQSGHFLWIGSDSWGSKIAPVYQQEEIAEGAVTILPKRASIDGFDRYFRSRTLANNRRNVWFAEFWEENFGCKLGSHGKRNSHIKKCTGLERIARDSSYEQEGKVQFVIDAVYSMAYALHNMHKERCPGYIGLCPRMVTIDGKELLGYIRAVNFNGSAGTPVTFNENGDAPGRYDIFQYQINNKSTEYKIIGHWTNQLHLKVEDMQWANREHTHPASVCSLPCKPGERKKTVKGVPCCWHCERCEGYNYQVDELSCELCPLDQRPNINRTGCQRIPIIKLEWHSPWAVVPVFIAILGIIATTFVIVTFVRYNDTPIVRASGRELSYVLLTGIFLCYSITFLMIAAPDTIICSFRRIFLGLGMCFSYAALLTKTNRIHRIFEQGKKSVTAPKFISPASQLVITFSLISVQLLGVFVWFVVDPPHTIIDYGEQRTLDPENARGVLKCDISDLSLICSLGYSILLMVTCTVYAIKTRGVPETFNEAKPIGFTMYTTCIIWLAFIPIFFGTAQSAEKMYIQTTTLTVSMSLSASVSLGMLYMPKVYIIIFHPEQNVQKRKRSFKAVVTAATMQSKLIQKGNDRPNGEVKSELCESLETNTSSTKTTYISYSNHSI
Consider `CCOc1ccc(OCCCCN2CCCC2)cc1`, for which the z-score is 0.507. Turning to `NC(=O)[C@H]1CC2(CC(c3cccc(NC(=O)c4ccccc4)c3)=NO2)CN1C(=O)[C@H]1CCC(=O)N1` (stereo partly drawn), the z-score is -0.202. Take `O=C(O)CCS(=O)(=O)c1nc(-c2cccs2)cc(C(F)(F)F)n1`: the z-score is -0.41. The same measure for `Cc1ccccc1NC(=O)c1c(C)nc(SCC(=O)OCc2ccccc2)c(C#N)c1-c1ccc(F)cc1`: -0.347; for `COc1ccc(OCCNS(=O)(=O)c2ccc3oc4ccccc4c3c2)cc1`: -0.0238. The same measure for `CC(=O)N/C(=C\c1ccccc1)C(=O)OCC(=O)NC1CCCC1`: -0.0254. For `COC(=O)c1cc(NC(=O)Cc2ccccc2[N+](=O)[O-])cc(C(=O)OC)c1` the value was -0.153; for `O=[N+]([O-])c1ccc(C2Oc3ccccc3C3CC(c4ccccc4)=NN32)s1` (stereo not drawn), -0.151; for `Cc1c(NC(=O)c2ccc(COc3ccc4ccccc4c3)o2)c(=O)n(-c2ccccc2)n1C`, -0.735. `C=C1c2ccc(C)cc2NC(=O)N1c1ccccc1` showed a z-score of 0.585. Molecule `Cc1ccc(S(=O)(=O)c2nc(-c3ccc(F)cc3)oc2SCC(=O)NCC2CCCO2)cc1` (stereo not drawn) yielded a z-score of -0.171. For `CC(C)(C)c1ccc(OCCON2C(=O)CCC2=O)c(Cl)c1` the value was active: 3.08; for `O=C(NC1CCCC1)c1ccc(COCC(F)(F)F)o1`, -0.113. For `CCOC(=O)C1C(=O)C=C(c2ccc(NS(C)(=O)=O)cc2)CC1c1ccco1` (stereo not drawn) the value was 2.57; for `Cn1c2c(c(=O)n(C)c1=O)C(C(F)(F)F)(C(F)(F)F)N=C(CCC1CCCCC1)N2`, -0.591. Turning to `CCN1C(=O)CS/C1=C(\C#N)S(=O)(=O)c1ccccc1`, the z-score was -0.391.

The molecule `COc1ccc(NC(=O)c2ccc(N(C)S(C)(=O)=O)cc2)cc1OC` registered a z-score of 0.0779. As for `S=c1[nH]nc(Cc2cccs2)n1-c1ccccc1`, the z-score was -0.644. For `CN1C(=O)/C(=C\c2cc(N=Nc3ccccc3)ccc2O)SC1=S` the value was -0.728. `Cc1ccc(C(=O)C(C)OC(=O)c2n[nH]c(=O)c3ccccc23)cc1` (stereo not drawn) came in with a z-score of -0.179. In turn, `CC(C)C(C(=O)Nc1sc2c(c1C#N)CCCCC2)N1C(=O)c2ccccc2C1=O` (stereo not drawn) gave a z-score of -0.18. For `O=C(COC(=O)c1ccc(O)cc1)Nc1ccccc1-c1ccccc1` the value was -0.347; for `CC(Nc1nc(N2CCCCC2)nc2ccccc12)c1ccccc1` (stereo not drawn), -2.21; for `O=C(N/C(=C/c1ccco1)C(=O)N1CCCC1)c1cccs1`, 0.148.

Consider `COc1cc(/C=N/NC(=O)CN2CCCCC2)ccc1OCc1ccccc1`, for which the z-score worked out at 0.0766. The same measure for `CCN(CC)S(=O)(=O)c1ccc(Cl)c(NC(=O)c2cc(Cl)ccc2Cl)c1`: -0.0935; for `O=C1CCCC(=NCc2ccco2)C1`: 0.0744.

For `COC(=O)CCC(=O)NNC(=O)c1cccc(Br)c1`, the z-score was -0.79. For `CCCCCOC(=O)C1C2C=CC3(CN(c4ccccc4C)C(=O)C13)O2` (stereo not drawn) the value was -0.35. In turn, `COc1cc(NS(=O)(=O)c2ccc(NC(=S)NC(=O)c3cccs3)cc2)nc(OC)n1` displayed a z-score of -0.131. For `Cc1cc(C)c[n+](-c2nc3ccccc3nc2C(=C=[N-])C#N)c1` the value was -0.00621.

`Cc1ccc(S(=O)(=O)N(C(=O)c2ccco2)c2cc3sc(=O)oc3c3ccccc23)cc1`: the z-score was -0.0695. For `CSCC[C@H](NC(=O)CCNC(C)=O)c1nc2ccccc2[nH]1` the value was 0.0156. The same measure for `COc1ccc(C2C(C(=O)N3CC(C)CC(C)C3)c3ccccc3C(=O)N2C)cc1` (stereo not drawn): 0.0797. For the molecule `NC(=O)COC(=O)CCCc1c[nH]c2ccccc12`, the z-score is -0.891.

Regarding `COc1cc(OC)nc(NC(=O)C(C)C)n1`, the z-score is -0.45. The same measure for `CCC/C(O)=C1\C(=O)CCCC1=NCCCCCC(=O)O`: 0.156; for `C[C@H](NC(=O)OC(C)(C)C)c1nnc(SCC(=O)c2ccc(Cl)cc2)o1`: 0.135. The same measure for `Cc1ccc(CCSCC(=O)O)cn1`: -0.135; for `CCN1CCN(C(=O)c2ccc(Cn3c(=O)[nH]c4cc(OC)c(OC)cc4c3=O)cc2)CC1`: -0.289. For `CC1=C(C(=O)NC(C)c2ccc3c(c2)OCCO3)C2(CCC(C)CC2)OC1=O` (stereo not drawn) the value was 0.417; for `COc1cccc2sc(Nc3nc4ccc(NC(C)=O)cc4s3)nc12`, -0.147; for `COc1ccc(NC(=O)C2CCN(S(C)(=O)=O)CC2)cc1Cl`, 0.0392. As for `COc1cccc(C(=O)NC2CC3CCCC(C2)N3CC(=O)Nc2ccc(N(C)C)cc2)c1` (stereo not drawn), the z-score was 0.0584.

Regarding `CCCCCOC(=O)c1c(N)n(CCOC)c2nc3ccccc3nc12`, the z-score was -2.04.

`CN(C)c1ccc(CNCCC2CCOC(C)(C)C2)cc1` (stereo not drawn) came in with a z-score of 0.694. The same measure for `CC(=O)c1ccc(NC(=O)COC(=O)CCC(=O)c2cccs2)cc1`: 0.114; for `CCCn1c2c(c(O)c(C(=O)Nc3ncccc3C)c1=O)CCCC2`: -0.047. For `CC1CCN(Cc2nc3c(c(=O)n(C)c(=O)n3C)n2Cc2c(F)cccc2Cl)CC1` the value was -0.27.

Molecule `O=[N+]([O-])c1c(NCCCO)cc(N2CCN(Cc3ccc4c(c3)OCO4)CC2)c2nonc12` displayed a z-score of -0.819. For `CCCn1c(NC(=S)Nc2ccccc2)nc2ccccc21` the value was 2.89; for `COc1ccc(S(=O)(=O)NCCSc2ccccc2)cc1OC`, 0.146. For `Cc1ccc(C)c(NC(=O)c2ncn[nH]2)c1` the value was -0.302; for `Cn1c(CNc2nc3ccccc3n2CCN2CCCCC2)nc2ccccc21`, -1.25. For `COc1ccccc1-c1c(C(F)(F)F)oc2cc(OS(C)(=O)=O)ccc2c1=O` the value was -0.178; for `O=[N+]([O-])c1ccc(N2CCN(c3ccccc3F)CC2)c(S(=O)(=O)N2CCOCC2)c1`, -0.179. Consider `C=C(C)CSc1nnc2n(Cc3ccccc3)c(=O)c3c4c(sc3n12)CCC4`, for which the z-score was -0.86. Regarding `COc1ccc(-c2cn3cccc(C)c3n2)cc1Br`, the z-score was -0.167.

Regarding `CC(=O)Nc1ccccc1-c1nc2ccccc2nc1OCC(=O)c1ccc2ccccc2c1`, the z-score was -0.276. For `CCn1c(Sc2ccc(N)cc2Cl)nc2ccccc21` the value was 0.839. For `O=C(Nc1cc2c(cc1Cl)OCCCO2)c1ccc(F)cc1` the value was -0.361. The same measure for `Cc1cc(Cl)ccc1OCC(=O)NCCOC(=O)Nc1sc(=S)n(C)c1C`: -0.44; for `COc1ccc(C(N)=S)c(OC)c1`: -0.0242; for `CC(C)(C)c1[nH]nc2c1C(c1ccccc1OC(=O)N1CCOCC1)C(C#N)=C(N)O2` (stereo not drawn): -2.43. `Cc1[nH]nc2c1C(c1ccc(F)cc1)C1=C(CC(C)(C)CC1=O)N2` (stereo not drawn): the z-score is -0.729. Molecule `Cc1ccc(OCCCn2ccnc2)c([N+](=O)[O-])c1` returned a z-score of -0.08. `CCN(CC)CCCn1c(=S)[nH]c2cc(Cl)ccc2c1=O`: the z-score was active: 4.1. On to `N#CC(=C1N=c2ccccc2=N1)c1c(O)[nH]c2ccccc12`, for which the z-score was determined as 0.0967. For `CCCCOC(=O)CCc1nc2ccccc2[nH]1`, the z-score was found to be 0.563. For `CC(NS(=O)(=O)c1ccc(F)cc1)C(=O)NCc1ccncc1` (stereo not drawn) the value was 0.325.

With `COc1ccc(NS(=O)(=O)c2cccc(NC(=O)NC3CCCCC3)c2)cc1`, the z-score is -0.413. For `CCOC(=O)c1cccc(N2C(=O)C3C(C(=O)NC4CC4)C4(C)C=CC3(O4)C2C(=O)NC(C)(C)C)c1` (stereo not drawn) the value was -0.0413. For `COc1ccccc1-n1c(CNC(=O)c2ccco2)nnc1SCC(=O)Nc1ccc(F)cc1` the value was -0.722. For `Cc1cc(-n2ccc(=O)[nH]c2=O)nc(-c2ccccc2)n1` the value was -0.208; for `COc1ccccc1N1CCN(C(=O)c2ccc3[nH]c4c(c3c2)CC(C)CC4)CC1` (stereo not drawn), -0.105. In turn, `CN(Cc1ccccc1)S(=O)(=O)c1ccc(C(=O)Nc2nnc(C3CC3)o2)cc1` yielded a z-score of -0.0388.

As for `C=CCN(c1ccccc1OC)S(=O)(=O)c1cccc(C(=O)OCC(=O)c2c[nH]c3ccccc23)c1`, the z-score came to 0.0221. With `CCN(CC)c1ccc(/C=C2/C(=O)ON=C2C)cc1`, the z-score is -0.917.

For `Cc1nc(Nc2ccccc2)[nH]c(=O)c1CCC(C)C`, the z-score worked out at 2.73.

`CCOc1ccccc1-n1c(SCC(N)=O)nnc1-c1ccc(O)cc1` gave a z-score of -0.253. Consider `Cc1n[nH]c(=O)nc1N1CCc2ccccc2C1`, for which the z-score is 0.362. As for `Cc1cccc(N(C2C=CS(=O)(=O)C2)S(=O)(=O)c2ccccc2)c1` (stereo not drawn), the z-score turned out to be 0.452.

`COC(=O)c1sccc1NC(=S)N1CCC(C)CC1`: the z-score worked out at 0.701. `O=C(O)CCCNS(=O)(=O)Cc1ccccc1` showed a z-score of -0.122. The same measure for `Clc1cc(Cl)c2nc(N3CCCC3)sc2c1`: 0.206; for `O=C(Oc1ccc2c(c1)OCC2=O)c1ccccc1`: 0.436; for `CC1=NN(C(N)=S)C(=O)C1N=Nc1c(C)cc(C)cc1C` (stereo not drawn): 0.119.

As for `O=C(CN(c1ccccc1)S(=O)(=O)c1ccccc1)NCCSCc1ccco1`, the z-score is -0.329. The same measure for `CC1=C(C#N)C(NC(=O)c2ccc(C)cc2)(C(F)(F)F)C(=O)N1` (stereo not drawn): -0.1.

In turn, `Nc1c(C(=O)NCCN2CCOCC2)c2nc3ccccc3nc2n1-c1ccccc1` came in with a z-score of 0.913. For `COCCSc1nnc(NS(=O)(=O)Cc2ccccc2)s1` the value was -0.311; for `C=C(C)COc1ccc(-c2nc(N)ncc2-c2ccc(OC)cc2)c(O)c1`, -1.06. Take `COc1ccc(Cc2nnn(CC(=O)O)n2)cc1`: the z-score is 0.459. As for `CCn1c(O)c(C(C#N)=C2N=c3ccccc3=N2)c2ccccc21`, the z-score is -0.126. For `CCOC(=O)c1cc(NC(=O)c2ccc(C)cc2)c(=O)oc1-c1ccccc1` the value was 0.203; for `O=C(NC1CCCCC1)C(c1ccc2ncccc2c1)N(Cc1ccc2c(c1)OCO2)C(=O)c1ccc2c(c1)OCCO2` (stereo not drawn), -0.394. `C/C(=N\NC(=O)CC(C)C)c1ccc(Cl)c(Cl)c1` had a z-score of -0.0256. The same measure for `Cc1cc(C(=O)O)cc(S(=O)(=O)N2CCOCC2)c1C`: -0.609.

On to `O=C(N/N=C/c1cccc(O)c1)c1csc2ccccc12`, for which the z-score was -0.869. As for `O=S(=O)(c1ccc(F)cc1)N1CCN(c2nc(-c3ccc(F)cc3)cs2)CC1`, the z-score was 0.31. The same measure for `CCN1CCN(C(=O)Nc2cccc(C(F)(F)F)c2)CC1`: -0.25; for `O=C(O)c1cccc(Nc2nc(N3CCOCC3)nc(N3CCOCC3)n2)c1`: -0.785; for `Cc1[nH]c2ccccc2c1SCC(=O)N1CCCc2ccccc21`: 0.0673. For the molecule `C=CCOC(=O)c1c(C)nc2cc3c(cc2c1C)OCO3`, the z-score was determined as 0.0676.

In the case of `O=C(Cn1[nH]c(=O)c2ccccc2c1=O)N1CC=C(c2ccccc2)CC1`, the z-score is -0.326.

Molecule `Cc1ccc(-c2noc(CCCOc3ccc(Cl)cc3Cl)n2)cc1` yielded a z-score of -0.0645. Take `Cc1cc(C(=O)OCc2nc3ccccc3s2)c(C)o1`: the z-score is -0.0566. For `Cn1c(=O)[nH]c(=O)c2c1nc(NCCCn1ccnc1)n2Cc1ccccc1` the value was -0.0863.

(Values after PubChem BioAssay AID488969 (Vanderbilt High Throughput Screening Facility, 2010).)
